Measured values from a collection of fitness landscapes (doi:10.1016/j.celrep.2020.107928).
Whole data set: some 81,000 sequences, median “one-hybrid fitness for binding parS DNA” near -0.17, cut for the highest 2% near 0.51. The list shows a part of the results.

B1: Caulobacter ParB omega fusion; a variant is named by its letters at X, in order, B8GW30 (parent)
chain: MESVVVGEPGMSEGRRGLGRGLSALLGEVDAAPAQAPGEQLGGSREAPIEILQRNPDQPRRTFREEDLEDLSNSIREKGVLQPILVRPSPDTAGEYQIVAGERAWRAAQRAGLKTVPIMVRELDDLAVLEIGIIENVQRADLNVLEEALSYKVLMEKFERTQENIAQTIGKSXSHVANXMRLLXLPDEVQSYLVSGELTAXHARAIAAAADPVALAKQIIEGGLSVRETEALARKAPNLSAGKSKGGRPPRVKDTDTQALESDLSSVLGLDVSIDHRGSTGTLTITYATLEQLDDLCNRLTRGI

Variants of: B1
Experiment: one-hybrid fitness for binding parS DNA (scaled: cognate 1, non-cognate 0); higher = stronger binding
Conditions: with parS DNA site
How it was run: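 Fitness is the rescaled log change in variant-to-wild-type read ratio, measured by Illumina sequencing of plasmids before and after bacterial one-hybrid selection. The scale puts cognate at 1 and non-cognate at 0. Selection of Caulobacter ParB libraries, four specificity codons randomised, took place in E. coli USO with a HIS3 reporter, site 19 bp from the promoter, over 48 hours at 37°C on M9-minus-histidine with 0.1 mM IPTG and 5 mM 3-AT.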
FAKA was tested, and the “one-hybrid fitness for binding parS DNA” value was no more than 0.2. With KCKR the “one-hybrid fitness for binding parS DNA” value was no more than 0.2. QWRG was tested, and the “one-hybrid fitness for binding parS DNA” value was no more than 0.2. With MLQA the “one-hybrid fitness for binding parS DNA” value was no more than 0.2. With VSDE the “one-hybrid fitness for binding parS DNA” value was no more than 0.2. For DSIS, the “one-hybrid fitness for binding parS DNA” value was no more than 0.2. For EGFS, the “one-hybrid fitness for binding parS DNA” value was no more than 0.2. GRVS was tested, and the “one-hybrid fitness for binding parS DNA” value was no more than 0.2. In the case of GPLT, the “one-hybrid fitness for binding parS DNA” value is reported as no more than 0.2. For YQRM, the “one-hybrid fitness for binding parS DNA” value was no more than 0.2. With RDRE the “one-hybrid fitness for binding parS DNA” value was no more than 0.2. For VPSI, the “one-hybrid fitness for binding parS DNA” value was no more than 0.2. For QQCC, the “one-hybrid fitness for binding parS DNA” value was no more than 0.2. In the case of SCGR, the “one-hybrid fitness for binding parS DNA” value is reported as no more than 0.2. In the case of CYHR, the “one-hybrid fitness for binding parS DNA” value is reported as no more than 0.2. For TYYF, the “one-hybrid fitness for binding parS DNA” value was no more than 0.2. In the case of GKGC, the “one-hybrid fitness for binding parS DNA” value is reported as no more than 0.2. For VKGK, the “one-hybrid fitness for binding parS DNA” value was no more than 0.2. GWNS was tested, and the “one-hybrid fitness for binding parS DNA” value was no more than 0.2. For TSTQ, the “one-hybrid fitness for binding parS DNA” value was no more than 0.2. QMVA was tested, and the “one-hybrid fitness for binding parS DNA” value was no more than 0.2. In the case of TSCL, the “one-hybrid fitness for binding parS DNA” value is reported as no more than 0.2. With RWLC the “one-hybrid fitness for binding parS DNA” value was 0.658. In the case of MHRD, the “one-hybrid fitness for binding parS DNA” value is reported as no more than 0.2. In the case of CDRG, the “one-hybrid fitness for binding parS DNA” value is reported as no more than 0.2. In the case of HCTT, the “one-hybrid fitness for binding parS DNA” value is reported as no more than 0.2. With KQKI the “one-hybrid fitness for binding parS DNA” value was no more than 0.2. FHRR was tested, and the “one-hybrid fitness for binding parS DNA” value was no more than 0.2. For YKTF, the “one-hybrid fitness for binding parS DNA” value was no more than 0.2. RYRY was tested, and the “one-hybrid fitness for binding parS DNA” value was 0.476. For HAAP, the “one-hybrid fitness for binding parS DNA” value was no more than 0.2. WART was tested, and the “one-hybrid fitness for binding parS DNA” value was no more than 0.2. For PGYE, the “one-hybrid fitness for binding parS DNA” value was no more than 0.2. For LAER, the “one-hybrid fitness for binding parS DNA” value was no more than 0.2. With VSQY the “one-hybrid fitness for binding parS DNA” value was no more than 0.2. RAST was tested, and the “one-hybrid fitness for binding parS DNA” value was 0.911. In the case of QETC, the “one-hybrid fitness for binding parS DNA” value is reported as no more than 0.2. With PSMP the “one-hybrid fitness for binding parS DNA” value was no more than 0.2. KLKT was tested, and the “one-hybrid fitness for binding parS DNA” value was no more than 0.2. For SNYT, the “one-hybrid fitness for binding parS DNA” value was no more than 0.2. With EHLF the “one-hybrid fitness for binding parS DNA” value was no more than 0.2. For SCTY, the “one-hybrid fitness for binding parS DNA” value was no more than 0.2. With PYLD the “one-hybrid fitness for binding parS DNA” value was no more than 0.2. With SSQS the “one-hybrid fitness for binding parS DNA” value was no more than 0.2. With DYMC the “one-hybrid fitness for binding parS DNA” value was no more than 0.2. In the case of LASW, the “one-hybrid fitness for binding parS DNA” value is reported as no more than 0.2. In the case of MRRF, the “one-hybrid fitness for binding parS DNA” value is reported as no more than 0.2. With EIGA the “one-hybrid fitness for binding parS DNA” value was no more than 0.2. In the case of IERS, the “one-hybrid fitness for binding parS DNA” value is reported as no more than 0.2. For VPNM, the “one-hybrid fitness for binding parS DNA” value was no more than 0.2. With TPSV the “one-hybrid fitness for binding parS DNA” value was no more than 0.2. For ANSG, the “one-hybrid fitness for binding parS DNA” value was no more than 0.2. For FAMG, the “one-hybrid fitness for binding parS DNA” value was no more than 0.2. CVRP was tested, and the “one-hybrid fitness for binding parS DNA” value was no more than 0.2. For RQPD, the “one-hybrid fitness for binding parS DNA” value was no more than 0.2. In the case of LMTI, the “one-hybrid fitness for binding parS DNA” value is reported as no more than 0.2. For KWSC, the “one-hybrid fitness for binding parS DNA” value was no more than 0.2. For ITFC, the “one-hybrid fitness for binding parS DNA” value was no more than 0.2. SNHI was tested, and the “one-hybrid fitness for binding parS DNA” value was no more than 0.2. For ETMT, the “one-hybrid fitness for binding parS DNA” value was no more than 0.2. PRAY was tested, and the “one-hybrid fitness for binding parS DNA” value was no more than 0.2. NNTR was tested, and the “one-hybrid fitness for binding parS DNA” value was no more than 0.2. For WKTG, the “one-hybrid fitness for binding parS DNA” value was no more than 0.2. For QEVV, the “one-hybrid fitness for binding parS DNA” value was no more than 0.2. With VLEL the “one-hybrid fitness for binding parS DNA” value was no more than 0.2. For ARND, the “one-hybrid fitness for binding parS DNA” value was no more than 0.2. For QQDS, the “one-hybrid fitness for binding parS DNA” value was no more than 0.2. For RMYG, the “one-hybrid fitness for binding parS DNA” value was 1.03. With NPYW the “one-hybrid fitness for binding parS DNA” value was no more than 0.2. With HTHH the “one-hybrid fitness for binding parS DNA” value was no more than 0.2. For WLTW, the “one-hybrid fitness for binding parS DNA” value was no more than 0.2. For LLIN, the “one-hybrid fitness for binding parS DNA” value was no more than 0.2. NHHP was tested, and the “one-hybrid fitness for binding parS DNA” value was no more than 0.2. In the case of LCWA, the “one-hybrid fitness for binding parS DNA” value is reported as no more than 0.2. With RESV the “one-hybrid fitness for binding parS DNA” value was no more than 0.2. In the case of RGIE, the “one-hybrid fitness for binding parS DNA” value is reported as no more than 0.2. TQLR was tested, and the “one-hybrid fitness for binding parS DNA” value was no more than 0.2. For NHYG, the “one-hybrid fitness for binding parS DNA” value was no more than 0.2. LAIG was tested, and the “one-hybrid fitness for binding parS DNA” value was no more than 0.2. In the case of RDAV, the “one-hybrid fitness for binding parS DNA” value is reported as no more than 0.2. For AAYP, the “one-hybrid fitness for binding parS DNA” value was no more than 0.2. MATP was tested, and the “one-hybrid fitness for binding parS DNA” value was no more than 0.2. LNKR was tested, and the “one-hybrid fitness for binding parS DNA” value was no more than 0.2. In the case of SNHE, the “one-hybrid fitness for binding parS DNA” value is reported as no more than 0.2. AVLQ was tested, and the “one-hybrid fitness for binding parS DNA” value was no more than 0.2. For HYGS, the “one-hybrid fitness for binding parS DNA” value was no more than 0.2. RNNY was tested, and the “one-hybrid fitness for binding parS DNA” value was 0.434. With VGLC the “one-hybrid fitness for binding parS DNA” value was no more than 0.2. In the case of CQLG, the “one-hybrid fitness for binding parS DNA” value is reported as no more than 0.2. With AYPW the “one-hybrid fitness for binding parS DNA” value was no more than 0.2. In the case of PIIT, the “one-hybrid fitness for binding parS DNA” value is reported as no more than 0.2. In the case of ALIT, the “one-hybrid fitness for binding parS DNA” value is reported as no more than 0.2. For QKMN, the “one-hybrid fitness for binding parS DNA” value was no more than 0.2. In the case of RTND, the “one-hybrid fitness for binding parS DNA” value is reported as no more than 0.2. For LTME, the “one-hybrid fitness for binding parS DNA” value was no more than 0.2. For WGGG, the “one-hybrid fitness for binding parS DNA” value was no more than 0.2. With VPQV the “one-hybrid fitness for binding parS DNA” value was no more than 0.2. KNEG was tested, and the “one-hybrid fitness for binding parS DNA” value was no more than 0.2. In the case of YGWG, the “one-hybrid fitness for binding parS DNA” value is reported as no more than 0.2. With QDCR the “one-hybrid fitness for binding parS DNA” value was no more than 0.2. For ISKL, the “one-hybrid fitness for binding parS DNA” value was no more than 0.2. For NCYC, the “one-hybrid fitness for binding parS DNA” value was no more than 0.2. TGNR was tested, and the “one-hybrid fitness for binding parS DNA” value was no more than 0.2. For PEGC, the “one-hybrid fitness for binding parS DNA” value was no more than 0.2. For SQCC, the “one-hybrid fitness for binding parS DNA” value was no more than 0.2. For KKGL, the “one-hybrid fitness for binding parS DNA” value was no more than 0.2. For QRGC, the “one-hybrid fitness for binding parS DNA” value was no more than 0.2. With RKGY the “one-hybrid fitness for binding parS DNA” value was 0.377. EIAF was tested, and the “one-hybrid fitness for binding parS DNA” value was no more than 0.2. With HPRY the “one-hybrid fitness for binding parS DNA” value was no more than 0.2. In the case of LALQ, the “one-hybrid fitness for binding parS DNA” value is reported as no more than 0.2. In the case of AMGA, the “one-hybrid fitness for binding parS DNA” value is reported as no more than 0.2. For VSYR, the “one-hybrid fitness for binding parS DNA” value was no more than 0.2. In the case of HGSG, the “one-hybrid fitness for binding parS DNA” value is reported as no more than 0.2. With NSRH the “one-hybrid fitness for binding parS DNA” value was no more than 0.2. With IQFR the “one-hybrid fitness for binding parS DNA” value was no more than 0.2. LTMS was tested, and the “one-hybrid fitness for binding parS DNA” value was no more than 0.2. For MKWM, the “one-hybrid fitness for binding parS DNA” value was no more than 0.2. With NQNG the “one-hybrid fitness for binding parS DNA” value was no more than 0.2. For MTGT, the “one-hybrid fitness for binding parS DNA” value was no more than 0.2. With PREA the “one-hybrid fitness for binding parS DNA” value was no more than 0.2. In the case of RTEE, the “one-hybrid fitness for binding parS DNA” value is reported as no more than 0.2. For KRKR, the “one-hybrid fitness for binding parS DNA” value was no more than 0.2. DFYS was tested, and the “one-hybrid fitness for binding parS DNA” value was no more than 0.2. With YYAK the “one-hybrid fitness for binding parS DNA” value was no more than 0.2. For PWVA, the “one-hybrid fitness for binding parS DNA” value was no more than 0.2. For EFLR, the “one-hybrid fitness for binding parS DNA” value was no more than 0.2. In the case of RMRG, the “one-hybrid fitness for binding parS DNA” value is reported as 0.962. RLHE was tested, and the “one-hybrid fitness for binding parS DNA” value was no more than 0.2. In the case of KKKA, the “one-hybrid fitness for binding parS DNA” value is reported as no more than 0.2. For DNPT, the “one-hybrid fitness for binding parS DNA” value was no more than 0.2. In the case of RIVI, the “one-hybrid fitness for binding parS DNA” value is reported as no more than 0.2. With KPKH the “one-hybrid fitness for binding parS DNA” value was no more than 0.2. For VSVW, the “one-hybrid fitness for binding parS DNA” value was no more than 0.2. IPWG was tested, and the “one-hybrid fitness for binding parS DNA” value was no more than 0.2. In the case of QFRW, the “one-hybrid fitness for binding parS DNA” value is reported as no more than 0.2. In the case of KLAL, the “one-hybrid fitness for binding parS DNA” value is reported as no more than 0.2. In the case of FARH, the “one-hybrid fitness for binding parS DNA” value is reported as no more than 0.2. With CNKA the “one-hybrid fitness for binding parS DNA” value was no more than 0.2. With VKKC the “one-hybrid fitness for binding parS DNA” value was no more than 0.2. In the case of DSSS, the “one-hybrid fitness for binding parS DNA” value is reported as no more than 0.2. With AINL the “one-hybrid fitness for binding parS DNA” value was no more than 0.2. With QLRQ the “one-hybrid fitness for binding parS DNA” value was no more than 0.2. For KGTT, the “one-hybrid fitness for binding parS DNA” value was no more than 0.2. With CNLW the “one-hybrid fitness for binding parS DNA” value was no more than 0.2. VPHT was tested, and the “one-hybrid fitness for binding parS DNA” value was no more than 0.2. For YMHG, the “one-hybrid fitness for binding parS DNA” value was no more than 0.2. With FESV the “one-hybrid fitness for binding parS DNA” value was no more than 0.2. With RSPQ the “one-hybrid fitness for binding parS DNA” value was no more than 0.2. THNM was tested, and the “one-hybrid fitness for binding parS DNA” value was no more than 0.2. With MFPR the “one-hybrid fitness for binding parS DNA” value was no more than 0.2. IAQC was tested, and the “one-hybrid fitness for binding parS DNA” value was no more than 0.2. For QLEL, the “one-hybrid fitness for binding parS DNA” value was no more than 0.2.
